Inconclusive means that the source gave no clear call. Such entries were picked first, then a sample of the others. Where the call is inconclusive, the potency comes from a doubtful curve fit. A structure can be active in one record and inactive in another. The source made the active and inactive calls. Unless noted, the call rests on the fitted dose curve; in most records, active means well fitted curve in the direction sought with a large enough effect in the repeat runs; inconclusive means weak or mixed curves; inactive means no such curve, though single readings can be large; an effect the other way counts as inactive or inconclusive.
Legend:
[1] = target: Estrogen receptor beta (Homo sapiens) (UniProt Q92731); assay: qHTS assay to identify small molecule antagonists of the estrogen receptor beta (ER-beta) signaling pathway (AID 1259378; active means well fitted inhibition curve with a large enough effect in the signal ratio in the repeat runs, not every such curve was filed as active; inconclusive means weak or mixed curves, or effect the other way; inactive means no such curve, though single readings can be large or run the other way; the % refers to the signal ratio; on activity, negative = inhibition: on the % scale 0 is the no-effect control and ±100 the full control effect); settings: ER-beta-UAS-bla HEK293T, beta-lactamase FRET ratio, 16 h; activity, negative = inhibition: at 92.4 µM (top of the series) unless noted
In short: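 ER-beta-UAS-bla HEK293T cells in 2% charcoal-stripped FBS medium treated with compound plus 1nM final 17-beta-estradiol for 16 hr at 37C. Beta-lactamase reporter read by FRET substrate fluorescence after 2 hours at room temperature.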

[2] = qHTS assay to identify small molecule agonists of the estrogen receptor beta (ER-beta) signaling pathway - cell viability counter screen (AID 1259380); further: nearly all actives have a fitted effect of over 30% in size
In short: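 Cells used were ER-beta-UAS-bla HEK293T in medium with 2% charcoal-stripped FBS. They were treated for 16 hr at 37C. Viability came from CellTiter-Glo luminescence.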

[3] = qHTS assay to identify small molecule antagonists of the estrogen receptor beta (ER-beta) signaling pathway - cell viability counter screen (AID 1259382); further: nearly all actives have a fitted effect of over 55% in size
In short: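 Agonist-stimulated (1nM E2) ER-beta-UAS-bla HEK293T cells are incubated with library compounds for 16 hr at 37C. Cell viability is then assessed in the reporter-assay wells by adding CellTiter-Glo and reading luminescence after 30 min.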

[4] = target: Androgen receptor (Homo sapiens) (UniProt P10275); assay: qHTS assay to identify small molecule agonists of the androgen receptor (AR) signaling pathway in the presence of an antagonist (AID 1259381; calls by dose curve; further: nearly all actives have a fitted effect of over 15% in size); settings: MDA-kb2 MMTV-luciferase, AR agonist + nilutamide, 16 h
Description: National Center for Advancing Translational Sciences [NCATS] NIH Chemical Genomics Center [NCGC] U.S. Environmental Protection Agency [EPA] National Institutes of Environmental Health Sciences [NIEHS] National Toxicology Program [NTP] Assay overview: Androgen receptor (AR) is an important member of nuclear receptor family. Its signaling plays a critical role in AR-dependent prostate cancer and other androgen related diseases. Considerable attention has been given in the past decades to develop methods to study and screen for the environmental chemicals that have the potential to interfere with metabolic homeostasis, reproduction, developmental and behavioral functions. Therefore AR binding assay for screening against androgen agonists and antagonists can be used to identify potential endocrine disruptors. MDA-kb2 cells (from ATCC, deposited by Wilson et al.) are human breast carcinoma cells that were stably transfected with a luciferase reporter gene under control of the MMTV promoter that contains response elements for both androgen receptor (AR) and glucocorticoid receptor (GR). This particular screening for measuring luciferase reporter gene activity using MDA-kb2 cells against Tox21 10K library compounds is a confirmation study on agonist mode screening in the presence of AR-antagonist compound (Nilutamide) at 3.0uM final concentration.
Assay Protocol Summary: MDA-kb2 cells (cells cultured without CO2) were dispensed at 3,000 cells/well in 4uL of culture medium into white wall/solid-bottom 1536-well plates (Corning Life Sciences, Corning, NY) using a Multidrop Combi (Thermo Fisher Scientific Inc., Waltham, MA) dispenser. The assay plates were incubated at 37C and 0% CO2 for 5hr. One uL of 3.0uM (final concentration) Nilutamide or assay buffer was added using two separate tips of Flying Reagent Dispenser (FRD, Aurora Discovery, San Diego, CA). Then 23nL of compounds dissolved in DMSO at 15 concentrations and positive controls were transferred to the assay plates using a Pintool station (Wako, San Diego, CA). The assay plates were incubated at 37C and 0% CO2 for 16hr. For luciferase read, 4uL/well ONE-Glo reagent (Promega Corporation, Madison, WI) was added to each well of the assay plates using FRD. After 30min incubation at room temperature, the luminescence signal was measured using a ViewLux plate reader (PerkinElmer, Shelton, CT).

[5] = target: Progesterone receptor (Homo sapiens) (UniProt P06401); assay: qHTS assay to identify small molecule agonists of the progesterone receptor (PR) signaling pathway (AID 1346784; calls by dose curve; further: nearly all actives have a fitted effect of over 30% in size); settings: PR-UAS-bla HEK293T, beta-lactamase FRET ratio, 16 h; activation: at 92.4 µM (top of the series) unless noted
In short: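 HEK 293T PR-UAS-bla reporter cells, 2% charcoal-stripped FBS; 6 hr settle at 37C/5% CO2, compound (DMSO) 16 hr, LiveBLAzer B/G FRET substrate 2 hr RT, fluorescence intensity read.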
Potency means the concentration at half of the fitted maximal effect; tags describe the fitted curve by direction and shape or compound fluorescence and quenching.

Chain of UniProt Q92731 (Q92731 whole entry, looked up): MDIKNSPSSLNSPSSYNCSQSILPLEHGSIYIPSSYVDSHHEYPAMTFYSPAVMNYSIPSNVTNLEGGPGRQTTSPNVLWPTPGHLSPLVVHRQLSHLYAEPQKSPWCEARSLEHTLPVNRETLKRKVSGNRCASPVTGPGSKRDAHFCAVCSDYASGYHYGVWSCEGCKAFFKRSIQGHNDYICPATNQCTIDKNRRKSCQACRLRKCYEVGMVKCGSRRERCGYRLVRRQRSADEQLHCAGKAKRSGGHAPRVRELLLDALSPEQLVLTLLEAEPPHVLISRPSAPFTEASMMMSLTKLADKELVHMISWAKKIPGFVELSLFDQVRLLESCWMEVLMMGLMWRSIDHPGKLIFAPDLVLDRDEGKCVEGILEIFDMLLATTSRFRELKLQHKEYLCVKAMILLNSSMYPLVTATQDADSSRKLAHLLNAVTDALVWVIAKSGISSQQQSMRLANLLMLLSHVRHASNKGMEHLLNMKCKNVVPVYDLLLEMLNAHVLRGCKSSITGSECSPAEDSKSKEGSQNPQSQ
Chain of UniProt P10275 (P10275 whole entry, looked up): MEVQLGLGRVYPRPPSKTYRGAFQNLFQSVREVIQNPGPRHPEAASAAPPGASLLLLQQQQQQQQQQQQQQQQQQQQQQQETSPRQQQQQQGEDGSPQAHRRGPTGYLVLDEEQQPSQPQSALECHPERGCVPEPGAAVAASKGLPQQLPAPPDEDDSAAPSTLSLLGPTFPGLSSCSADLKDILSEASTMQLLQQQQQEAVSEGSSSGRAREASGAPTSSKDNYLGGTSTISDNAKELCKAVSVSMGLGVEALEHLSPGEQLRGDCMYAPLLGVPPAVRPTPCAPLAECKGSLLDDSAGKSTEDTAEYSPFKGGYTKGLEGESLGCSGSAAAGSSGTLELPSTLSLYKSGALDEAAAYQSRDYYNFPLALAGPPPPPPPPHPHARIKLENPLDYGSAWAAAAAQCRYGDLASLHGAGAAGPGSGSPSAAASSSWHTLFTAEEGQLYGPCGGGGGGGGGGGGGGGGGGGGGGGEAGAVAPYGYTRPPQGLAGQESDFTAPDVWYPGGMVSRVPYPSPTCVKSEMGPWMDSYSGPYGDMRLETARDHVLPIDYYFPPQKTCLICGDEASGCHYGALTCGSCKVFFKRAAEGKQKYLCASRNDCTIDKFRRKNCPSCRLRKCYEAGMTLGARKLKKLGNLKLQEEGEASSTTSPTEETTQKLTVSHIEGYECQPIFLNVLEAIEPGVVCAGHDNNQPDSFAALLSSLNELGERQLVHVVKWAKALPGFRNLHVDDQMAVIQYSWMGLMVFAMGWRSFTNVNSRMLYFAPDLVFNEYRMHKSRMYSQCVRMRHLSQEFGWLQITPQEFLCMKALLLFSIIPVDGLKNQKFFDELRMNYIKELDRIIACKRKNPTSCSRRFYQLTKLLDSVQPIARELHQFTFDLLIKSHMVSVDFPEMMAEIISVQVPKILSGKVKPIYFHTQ
Chain of UniProt P06401 (P06401 whole entry, looked up): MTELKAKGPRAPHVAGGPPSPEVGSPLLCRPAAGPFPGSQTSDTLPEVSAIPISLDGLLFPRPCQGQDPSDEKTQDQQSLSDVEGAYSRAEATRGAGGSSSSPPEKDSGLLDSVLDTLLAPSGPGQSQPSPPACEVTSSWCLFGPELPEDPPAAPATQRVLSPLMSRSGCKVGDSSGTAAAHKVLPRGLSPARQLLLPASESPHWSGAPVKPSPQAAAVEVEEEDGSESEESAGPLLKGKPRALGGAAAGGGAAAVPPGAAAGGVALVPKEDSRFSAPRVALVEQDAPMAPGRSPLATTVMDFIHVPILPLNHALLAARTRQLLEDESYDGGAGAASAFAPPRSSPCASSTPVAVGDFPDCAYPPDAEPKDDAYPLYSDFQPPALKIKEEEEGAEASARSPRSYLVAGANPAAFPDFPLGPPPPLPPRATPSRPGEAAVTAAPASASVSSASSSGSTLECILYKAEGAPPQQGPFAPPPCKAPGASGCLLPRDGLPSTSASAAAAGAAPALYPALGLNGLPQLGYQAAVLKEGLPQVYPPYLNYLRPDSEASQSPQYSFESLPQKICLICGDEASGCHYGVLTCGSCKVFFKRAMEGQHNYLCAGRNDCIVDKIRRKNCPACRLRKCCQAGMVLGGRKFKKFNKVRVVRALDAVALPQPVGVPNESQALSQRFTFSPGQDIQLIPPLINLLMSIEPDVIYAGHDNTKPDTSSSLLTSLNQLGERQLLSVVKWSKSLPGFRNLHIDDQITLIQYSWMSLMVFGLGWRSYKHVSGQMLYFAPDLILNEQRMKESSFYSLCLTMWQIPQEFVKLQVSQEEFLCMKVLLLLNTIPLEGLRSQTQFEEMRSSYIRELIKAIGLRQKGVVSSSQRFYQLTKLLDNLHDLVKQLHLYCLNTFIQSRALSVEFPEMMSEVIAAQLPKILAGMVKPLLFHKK

N#Cc1cc2ccccc2c2ccccc12
activity, negative = inhibition [1]: inconclusive: 7.98%
Potency [2]: inconclusive: 43.5 µM [cytotoxic, partial curve]

CC(C)(C)CC(C)(C)c1ccc(OCCO)cc1
Potency [1]: active: 43 µM
Potency [2]: inconclusive: 60.8 µM [cytotoxic, single point]
Potency [3]: inconclusive: 68.2 µM [cytotoxic]

CC(C)(C)C(=O)O
Potency [1]: inactive
Potency [2]: inactive

Cc1ccc2nc(N)[nH]c(=O)c2c1Sc1ccncc1
activity, negative = inhibition [1]: inconclusive: -31.6% [at 42.5 µM]
Potency [2]: inconclusive: 5.31 µM [cytotoxic, full curve]

C=CCCCCCCCCC=O
Potency [1]: inactive
Potency [2]: inconclusive: 24.3 µM [cytotoxic, partial curve]

Cc1nc(-c2ccc(Cl)cc2)oc1COC(C)(C)C(=O)O
Potency [1]: inactive
Potency [2]: inconclusive: 26.6 µM [rising, partial curve, poor fit]

CCCCCCCCc1ccc(S(=O)(=O)O)cc1
activity, negative = inhibition [1]: inconclusive: -55.2%
Potency [2]: active: 19.2 µM
Potency [3]: inconclusive: 30.4 µM [cytotoxic, partial curve]

O=[N+]([O-])c1cccc(S(=O)(=O)O)c1
Potency [1]: active: 2.2 µM
Potency [2]: active: 24.7 µM

CCc1oc2ccccc2c1C(=O)c1cc(Br)c(O)c(Br)c1
activity, negative = inhibition [1]: inconclusive: -44% [at 42.5 µM]
Potency [2]: inconclusive: 3.76 µM [cytotoxic, full curve]

CC(=O)[C@H]1CC[C@H]2[C@@H]3C=CC4=CC(=O)CC[C@@]4(C)[C@@H]3CC[C@]12C
activity, negative = inhibition [1]: inconclusive: -30% [at 42.5 µM]
Potency [2]: inactive
Potency [4]: inconclusive: 11.9 µM [rising, partial curve]
Potency [5]: inconclusive: 0.0084 µM [falling, full curve]

CCCNCCC
activity, negative = inhibition [1]: inconclusive: -0.0447%
Potency [2]: inconclusive: 68.9 µM [rising, single point]

Cc1cc(C)c(O)c(C(C)(C)C)c1
Potency [1]: inactive
Potency [2]: inactive

CCCCCCCCCCC(=O)O
activity, negative = inhibition [1]: inconclusive: -37%
Potency [2]: inconclusive: 69.4 µM [cytotoxic, single point]

CCCCCCCC/C=C/C(=O)O
Potency [1]: inconclusive: 26.6 µM [rising, single point]
Potency [2]: inconclusive: 33.5 µM [cytotoxic, single point]
Potency [3]: inconclusive: 29.8 µM [cytotoxic, partial curve, poor fit]

CC1=C(/C=C/C(C)=C/C=C/C(C)=C/CO)C(C)(C)CCC1
Potency [1]: active: 64.4 µM
Potency [2]: inconclusive: 45.6 µM [cytotoxic, partial curve]
Potency [3]: inconclusive: 72.3 µM [cytotoxic, partial curve, poor fit]

CCc1ccc(C)cc1
Potency [1]: inactive
Potency [2]: inactive

O=C(Oc1ccccc1)c1ccc(O)cc1
Potency [1]: active: 48.9 µM
Potency [2]: inconclusive: 61.1 µM [cytotoxic, single point]
Potency [3]: inconclusive: 61.1 µM [cytotoxic]

Cc1c(C(=O)NN2CCCCC2)nn(-c2ccc(Cl)cc2Cl)c1-c1ccc(Cl)cc1
Potency [1]: inconclusive: 9.44 µM [inhibitor, full curve]
Potency [2]: inconclusive: 11.9 µM [cytotoxic, partial curve]

COCC(=O)O
Potency [1]: inactive
Potency [2]: inactive

O=C(O)CN(CCN(CC(=O)O)CC(=O)O)CCN(CC(=O)O)CC(=O)O
Potency [1]: active: 5.8 µM
Potency [2]: inconclusive: 2.59 µM [cytotoxic, full curve]
Potency [3]: inconclusive: 7.3 µM [cytotoxic, full curve, poor fit]

CNC(=O)C(c1ccccc1)c1ccccc1
activity, negative = inhibition [1]: inconclusive: 6.2%
Potency [2]: inactive

O=C(O)c1cc(-c2ccc(F)cc2F)ccc1O
Potency [1]: inconclusive: 33.5 µM [fluorescent, partial curve]
Potency [2]: inconclusive: 18.8 µM [cytotoxic, partial curve]
Potency [3]: inconclusive: 23.7 µM [cytotoxic, partial curve]

CC(C)(C)c1cc(CO)cc(C(C)(C)C)c1O
Potency [1]: inconclusive: 62.3 µM [inhibitor, partial curve]
Potency [2]: inconclusive: 69.9 µM [cytotoxic, single point]

CCCc1c(OCCCOc2ccc(OCC(=O)O)cc2)ccc(C(C)=O)c1O
Potency [1]: inconclusive: 19.3 µM [rising, partial curve]
Potency [2]: active: 17.2 µM
Potency [3]: inconclusive: 19.3 µM [cytotoxic, full curve]
